Data as given in the supplement of paper PMC12632987.
The full ranking holds about 4,500 sequences; the median of “median log2 fold change of GCK-ALFA target abundance (FLAG IP / Myc IP barcode read proportion)” is about 0.078, and the lowest 2% start at about -0.6. The list shows a part of the results.

B1: GBRAP_78_6648 (protein)
chain: EVEELIDKALEHIDKASRLAQKLPEEERNELLAELTEAASYLLEAEENGFDLELLEEALKELKEALKLVEKLDHPEAPKIKEELEKAIKLVEEAIKLVKK
B2: GBRAP_9_7175 (protein)
chain: LKEAAKKAIEGLKEAKEFALEVVPEEKKEEINAAFDELIETVKKMQADDSVTKEEFRETLEKGFDKIIELAKKNLDPEIAAIVETELLTIKAEVDELLDE
B3: GBRAP_52_5867 (protein)
chain: MRERLRAALEEALALVKAGDEEGARALARELVASISEEEAEVLIEVAAELFATLAPEDLDAAWRLMEILAEAMEEAGFPEELVTLFEGEVGSAIAKREAA
B4: GBRAP_128_3391 (protein)
chain: SEEEKVEKAKELIDKIIEADEETARELAKELMELFGTLSKENREKVAEYFHEKLPELTAEKLDVVADVFREQRPKLDPYGQELVADMEVEALNEAEEKEE
B5: GBRAP_52_6252 (protein)
chain: MRARLRADAREILELVKEGREEEARRLAREIAETYNEEELRLFIDEFAALAAEAPKEDIDDVWRAAEILAEALEEAGWEEVLVDDALARTAAALVKVEAK
B6: GBRAP_160_4562 (protein)
chain: MEKVKALVDDLRADVEATLEATRDDSVEELAVALSGVIGSHAMEAAEDPRFSDEMVDILLAARDEITAYLAANRDASFEEIRAAILAIVDAAGAAMLAAA
B7: GBRAP_160_4394 (protein)
chain: EEEFEKLEKEINDIFEEAKKLIEGESPEERKVIIRVAFGEILMEVFSNEAVSDEQEEEFGKLLDEYEKKALEAVEKGLEAVLKVLDEARKEVLELIEKYK
B8: GBRAP_128_3471 (protein)
chain: AVEEARKRTEEIMEKMKEANDEEFKKLAEELAEWLLTLPVEEVEAAVEVIKEHLPELSAEKLEILADVLDKAMPKATPEKAALFADVRSEALLLAEEKEE
B9: GBRAP_160_4318 (protein)
chain: SEELEELKKEIREIAEEAERLIEGQSPEERLTIVRVALGEIVLLAVENPEISDELEDKIAEIADAAEAELRANPDLSEEEVKALLRKAVEEILKLIKEEE
B10: GBRAP_160_4551 (protein)
chain: SPFVDALVAHAREEVEEALALGAEVNPADALAVLRVAAGDVIMWAMEDPRATDEMEDAVAEVMDALIADFEANADAPMAEWRRLAAEHLAELRARLEALA
B11: GBRAP_52_6353 (protein)
chain: MRERMRRLVEEAVALALAGDEEGLRALAREIVETLSDEELRLLFEELARRARESDAETAEALLEVAEVLEDEMLKAGRDEFEASALLSDVGAAVYENLQR
B12: GBRAP_125_3110 (protein)
chain: SMEEILEALERLAKALGFSEEEAREAAELARRFSVKQTLYAIFLAEGEEELADLVEKLTEEQAIEALKELDEWLKKHPDASKEEVIKKAKEILEKQLAKQ
B13: GBRAP_128_3472 (protein)
chain: GVEEVRKWTKEVMEKMKTADDEEFRELATELAERLLTLPLEEVEAAVEVIKEHLPELTAEKLEILAEVLREARPQATPEKAALFADVESEALLLAEELEE
B14: GBRAP_35_5511 (protein)
chain: SSDETEVEMLVATIEDLVLAVPDLDVETAAAIAEQLLELARELAKELKNNPEALKRLAEAVERLLRAVREHYGDDPLAKETAERLEEALEEIRELLEKAK
B15: GBRAP_78_6664 (protein)
chain: KIEELLDKALEEIDKAARLTELLPEEDRNEVLGLLVDAASDIVEAEENGGDLELLEEAIKELKEAAKLLKKLKTPEAEKVLEEVEKALKYVEKAVKLKKK
B16: GBRAP_52_6126 (protein)
chain: MRERARALVEEMVALIRAGREEEARALAREAVATLDDEELELVAEELAELIRAASPEEQEYLERAAEILAEALEEAGRDEALADYVLARAAAALYEAELA
B17: GBRAP_160_4216 (protein)
chain: MELVDKLVKIVRDEFTEALELIEGESKEEQKVILDVAVGNVILEAMELPGVTDEMEETVEEMSEELAKKLLEMADKSKEEKLKLIEEMTAKLEEELKKLA
B18: GBRAP_11_2910 (protein)
chain: KEELLKKLAELAEELVEKLEELLEEGVEDEELLEEALELAEEALELAKENLDEADVELAEELVEELKEAMEDPETAEEHVEHALAIARVFLGQVLLAIEE
B19: GBRAP_52_5908 (protein)
chain: MREELRRIAEEMVAAVKAGNLEEARRIAREAVETLNDEELRLLIEEFAELVLEAPLEDLPYYFKAAEILAEEIERAGRDEVLADDLLNAVAAAAYQKEQA
B20: GBRAP_74_6567 (protein)
chain: SEELIKEIKEIAKNKSLLEFSNFILENIDKLDEEALLVAAEEFAKKIKEEKDTITEEELEKAAEAAAALADKAFQEDSSRETLKAMNELIAAVVEAEKSL
B21: GBRAP_26_5441 (protein)
chain: MDEIMDEAREKIVSLAETPEQKAGLATEMDNFEVEADEALEKMLKEGMSLEEFEAVLEEEKKEILETAKELGLSEETLKKIEEILNETKEKLLKLAKELR
B22: GBRAP_139_3705 (protein)
chain: SHLEEIVERARELTRRMREDREASLREIVALLASLDEEEAEAALEAIGEVLAEFPLDEAEELADELLELIEREIDDEDKRDIAEAVLNGALARHAYAEEL
B23: GBRAP_52_5988 (protein)
chain: MREEARRIAEELVELMLAGKREEAEKLIKEIVATKTPEQIKLIFEELARMAKEANPEEIDAIVEIAIILADAALEAGFDEAEVDDQLARVAAAAVEALKK
B24: GBRAP_153_3943 (protein)
chain: MEEEEKLLKEALELIEKIKKEGGKEELIRKLAKLIKELSEEQKLIVAKELNKLSEELVYKIFKVLATEEGFSVEELLEMTTELNLEHEAAALKAIVDAQK
B25: GBRAP_78_6726 (protein)
chain: ELEELLDKALEKVNKAAKLLLTLPLELSEEPLGELVDAASDLEEAIEEGGDLKYLEEALKHLEAAKKALEAKKNPELEPALKEVEEAIKLLKQAIKLAKK
B26: GBRAP_83_6968 (protein)
chain: AEEVAVVTTPDHVDAAIDAAIDLAEEEGKKVTVVLVGDPEGVIAAAKKVAEATKDLPNVEIEAVITNAREEEAERAERELKEIAEKYGKKLTFHADLIPP
B27: GBRAP_35_5610 (protein)
chain: DFEEETAEMLVAFIEDLTLAVPDVDVATLVAMTNSAVDTAREVAEEHKDNLEALEKLRKAMEKLLEALKKHHGDDPEAAAAIARVEETIKYIEELIKEAK
B28: GBRAP_128_3215 (protein)
chain: STEEAVERVRELLERIKESDEEEAREIAEELAELILSLSLEEAEAAREAIEELLPELTEEQLDILMDAFAEASKETDTPVADVLADLAVAAGEEILEQEE
B29: GBRAP_184_5175 (protein)
chain: KVLEFDLEAADVAEARAQMAAIAAAVAGTNADVYIIVRIPELTVEMVRAILDGAAAIKAAGAATRITIHFEGDVDEEVADVALELAREAGINVVLALKEE

Molecular target: GABARAP, O95166
Assay: median log2 fold change of GCK-ALFA target abundance (FLAG IP / Myc IP barcode read proportion) (log2 ratio); each designed protein is fused to an ALFA-tag nanobody in HEK293 cells to bring the named protein to FLAG-tagged glucokinase (GCK); Myc marks an untargeted standard; higher = target protein stabilised (more abundant)
Settings: target protein: 3xFLAG-MCP-GCK-ALFA reporter; HEK293 landing pad (RPLP)
In short: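 HEK293 landing-pad cells received a recombined binder library fused to the ALFA nanobody and were induced with 2 μg mL^−1 doxycycline, then transfected with a plasmid encoding a FLAG-tagged target and a Myc-tagged standard. Lysates were collected after 48 h for anti-FLAG and anti-Myc immunoprecipitation, and the circular RNA barcodes were reverse transcribed, amplified and sequenced. Target abundance for each binder is the median log2 ratio of FLAG to Myc barcode read proportions. Barcodes had to reach a proportion of at least 10^−7 in both replicates, each binder needed at least 3 barcodes per replicate, a pseudocount of 10^−6 was applied, and the two replicates were pooled.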

Sequence of GABARAP, O95166 (O95166 whole entry, the tested form may be a part): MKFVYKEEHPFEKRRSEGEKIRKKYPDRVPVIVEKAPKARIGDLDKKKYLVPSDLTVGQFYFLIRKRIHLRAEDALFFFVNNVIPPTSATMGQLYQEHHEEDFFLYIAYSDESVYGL

Row | Binder | median log2 fold change
1 | B1 | 0.0863
2 | B2 | 0.286
3 | B3 | -0.0902
4 | B4 | 0.184
5 | B5 | -0.272
6 | B6 | 0.132
7 | B7 | -0.447
8 | B8 | 0.298
9 | B9 | -0.019
10 | B10 | -0.491
11 | B11 | -0.183
12 | B12 | -0.0531
13 | B13 | 0.00124
14 | B14 | -0.0467
15 | B15 | -0.271
16 | B16 | -0.267
17 | B17 | -0.0469
18 | B18 | -0.0133
19 | B19 | -0.00567
20 | B20 | -0.102
21 | B21 | 0.0427
22 | B22 | -0.0201
23 | B23 | -0.289
24 | B24 | 0.21
25 | B25 | 0.191
26 | B26 | -0.0575
27 | B27 | 0.102
28 | B28 | 0.0632
29 | B29 | 0.187
